# Source: PubChem BioAssay AID1345082 (National Center for Advancing Translational Sciences (NCATS), 2018)
# The campaign covered roughly 94,000 compounds. About 4,000 (4.3%) were called active. This list was built around the results that the source calls inconclusive (neither active nor inactive); the mix of calls is not that of the screen. The call rests on the fitted dose curve; in most records, active means well fitted inhibition curve with a large enough effect; inconclusive means small, poorly fitted or top-dose-only effect; inactive means no such curve, though single readings can be large or run the other way. Potencies of inconclusive entries are doubtful fits and often do not repeat.
# Experiment: Cytotoxic Profiling in NIH 3T3 Cell Line of Diverse Libraries Using Quantitative High-Throughput Screening; further: nearly all actives have a fitted effect of over 55% in size
# Conditions: NIH 3T3 viability, CellTiter-Glo ATP luminescence, 48-72 h; activity change, negative = cytotoxicity: at 96.7 µM (top of the series); series mostly up to 96.7 µM
# Method in brief: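 Cells were seeded at 400 per well, treated with pin-transferred compound, and kept 48 or 72 hr at 37 °C before CellTiter-Glo addition and luminescence imaging of cellular ATP.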
# On the % scale 0 is the no-effect control and ±100 the full control effect; potency means the concentration at half of the fitted maximal effect; tags describe the fitted curve by direction and shape.
SMILES,Potency,outcome,"activity change, negative = cytotoxicity"
CCOC(=O)C1(Cc2ccccc2C(F)(F)F)CCN(C(C)Cc2cccc(C)n2)CC1 (configuration not stated),active: 28.2 µM,,
O=C(c1ccoc1)N1CC[C@@H]2[C@@H](CCC(=O)N2CCc2cnc[nH]2)C1,,inactive,
COc1ccc(CCC(=O)N2CCC(Cc3nc(-c4ccc(F)cc4)no3)CC2)cc1,"inconclusive: 50.1 µM [inhibitor, partial curve, poor fit]",,
Cc1ccc([S+](=O)([O-])NC2CCCN(Cc3ccc(-c4cncnc4)cc3)C2)cc1 (configuration not stated),"inconclusive: 35.5 µM [inhibitor, partial curve]",,
Cc1nn(-c2ccc(F)cc2)c(Oc2ccc(F)cc2F)c1CCC(=O)N1CCCC1,"inconclusive: 50.1 µM [inhibitor, partial curve, poor fit]",,
O=C(c1ccccc1F)N1CC(Oc2cccc(-c3nc(-c4ccccc4)no3)c2)C1,"inconclusive: 44.7 µM [inhibitor, partial curve, poor fit]",,
COc1ccc(C(=O)N2CCC3(C2)C(=O)Nc2ccccc23)cc1 (configuration not stated),"inconclusive: 79.4 µM [inhibitor, single point]",,
O=C(c1ccc2[nH]ncc2c1)N1CCOCC12CCN(Cc1ccccc1Cl)CC2,,,inactive: -12.2% [at 138 µM]
COc1ccc(CCC(=O)N2CCC(c3n[nH]c(=O)n3-c3ccc(C)cc3)CC2)cc1,"inconclusive: 50.1 µM [inhibitor, partial curve, poor fit]",,
Cc1cc(C)cc(C(=O)N2CCCC(n3cc(-c4nc(C(C)C)no4)nn3)C2)c1 (configuration not stated),"inconclusive: 50.1 µM [inhibitor, partial curve, poor fit]",,
COC(=O)N1CCN(c2nccc(Nc3ccc(OC)cc3)n2)CC1,"inconclusive: 79.4 µM [inhibitor, partial curve, poor fit]",,
COc1ccc2[nH]c(C(=O)N3CCCCCNC(=O)[C@@H]4CCC[C@@H]43)cc2c1,"inconclusive: 31.6 µM [inhibitor, partial curve]",,
CC(C)Oc1cccc(-c2cccc(COc3ccc4c(cnn4CC[S+](C)(=O)[O-])c3)c2)c1,"inconclusive: 31.6 µM [inhibitor, full curve]",,
Cc1cn2nc(C(=O)Nc3ccc(N(C)C)cc3)cc2c(N(C)Cc2ccccc2)n1,"inconclusive: 28.2 µM [inhibitor, partial curve]",,
CC(C)n1c(CNC(=O)CC[C@H]2NC(=O)c3ccccc3NC2=O)nc2ccccc21,"inconclusive: 50.1 µM [inhibitor, partial curve, poor fit]",,
O=C1Nc2ccc(Br)cc2C(=O)N2CCN(C(=O)c3cccc(F)c3)C[C@H]12,"inconclusive: 89.1 µM [inhibitor, partial curve, poor fit]",,
CCCCNc1ncc(C(=O)O)c(CC)n1,,,inactive: 3.61%
CCC(C)n1c(C(C)CC(=O)Cc2ccccc2)nc2cccnc21 (configuration not stated),,,inactive: -28.6%
CCN(CC)C(=O)N1CCCC(Cc2ncc(C)n2Cc2ccc(F)cc2)C1 (configuration not stated),"inconclusive: 50.1 µM [inhibitor, partial curve, poor fit]",,

SMILES,Potency,outcome,"activity change, negative = cytotoxicity"
COCCOc1cc(C)c2c(c1C)C[C@H](C(C)C(=O)N1CCCCC1)CC2 (some centres not stated),"inconclusive: 50.1 µM [inhibitor, full curve]",,
COc1ccc(C(=O)N2CCC(C(=O)N3CCC(N4Cc5cccn5C4=O)CC3)CC2)cc1,,,inactive: -28.8%
O=C(NCC1CC1)c1cc(-c2cccs2)c2cccn2n1,"inconclusive: 56.2 µM [inhibitor, partial curve, poor fit]",,
CCCCCC(=O)N1C[C@@H](C(=O)OCC)[C@@H]2Oc3cc(OC)ccc3[C@@H]21,"inconclusive: 70.8 µM [inhibitor, single point]",,
O=C(c1ccc2c(c1)CCC2)N1C[C@H]2CC[C@@H]1CN(Cc1cscn1)C2,"inconclusive: 50.1 µM [inhibitor, partial curve, poor fit]",,
O=C(Cc1cccc(Cl)c1)N1CCNc2cnc(Nc3cccc(C(F)(F)F)c3)nc2C1,"inconclusive: 44.7 µM [inhibitor, partial curve, poor fit]",,
COc1ccccc1Cn1c(=O)c(C(=O)NCc2ccc(F)cc2)nc2cccnc21,"inconclusive: 50.1 µM [inhibitor, partial curve, poor fit]",,
CCn1nc(C)c(-c2cc(C(=O)N3CCCCCCNC(=O)[C@@H]4CCCC[C@@H]43)no2)c1C,,,inactive: -26.8%
COc1ccc(C(=O)NC2CCN(c3cnn(CC4CC4)c(=O)c3)CC2)cc1OC,"inconclusive: 50.1 µM [inhibitor, partial curve, poor fit]",,
COc1cc(C(=O)NC2CCCN(c3cc(-c4ccccc4)[nH]n3)C2)cc(OC)c1OC (configuration not stated),"inconclusive: 3.16 µM [inhibitor, full curve, poor fit]",,
CCCN1C(=O)Cc2cc(C(=O)NCc3ccco3)ccc21,"inconclusive: 3.16 µM [inhibitor, full curve, poor fit]",,
CCc1noc(CC2CCOC3(CCN(S(=O)(=O)c4ccc(Cl)cc4)CC3)C2)n1 (configuration not stated),"inconclusive: 44.7 µM [inhibitor, partial curve, poor fit]",,
COc1ccc(CC2CCOC3(CCN(C(=O)c4ccco4)CC3)C2)cc1 (configuration not stated),"inconclusive: 39.8 µM [inhibitor, partial curve, poor fit]",,
CNC(=O)Cn1nc(C2CCN(C(=O)c3ccccc3F)CC2)c2c1CCOC2,"inconclusive: 22.4 µM [inhibitor, full curve]",,
CCNC(=O)N[C@H]1CC[C@]2(C)CCC([C@H](C)C(=O)NCc3ccccc3OC)[C@H](O)[C@H]2[C@@H]1C (some centres not stated),"inconclusive: 17.8 µM [inhibitor, partial curve, poor fit]",,
CCCC1CN(Cc2cccc(F)c2)C(=O)c2ccc(C)nc2O1 (configuration not stated),"inconclusive: 56.2 µM [inhibitor, partial curve, poor fit]",,
O=C(CCc1conc1-c1cccc(F)c1)NCc1ccccc1Cl,"inconclusive: 70.8 µM [inhibitor, single point]",,
COc1ccc(CNC(=O)c2ccc(Cn3ccn4nc5c(c4c3=O)CCCC5)cc2)cc1OC,"inconclusive: 31.6 µM [inhibitor, partial curve, poor fit]",,
